Assay results from PubChem BioAssay AID624418 (National Center for Advancing Translational Sciences (NCATS), 2012).
Hit rate of the full screen: of about 410,000 compounds, about 530 (0.13%) were called active. This list was built around the results that the source calls inconclusive (neither active nor inactive); the mix of calls is not that of the screen. Calls come from the whole dose curve; as a rule, active = well fitted inhibition curve with a large enough effect; inconclusive = small, poorly fitted or top-dose-only effect, or another doubt; inactive = no such curve, though single readings can be large or run the other way. Potencies beside an inconclusive call are fits to weak or partial responses and may not hold up.

Test: qHTS of GLP-1 Receptor Inverse Agonists: Cytotox Screen
Settings: HEK293 cAMP-luciferase reporter cells, luminescence, 24 h; activity change, negative = inhibition: at 38.3 µM (top of the series) unless noted
Method in brief: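 Cells in DMEM/10% Nu serum/1% pen-strep, 1536-well format. Pre-incubated 12 h, dosed with 23 nL compound, incubated a further 24 h. Luciferase detection, 12 min at room temp, luminescence.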
% is set by controls: 0 for no effect and ±100 for the full control effect; potency is the fitted concentration of half-maximal effect.

Row | SMILES | Potency | activity change, negative = inhibition
1 | CC1CCCCC1NC(=S)Nc1ccc(SC(F)F)cc1 (centres undefined) | inconclusive: 14.1 µM [inhibitor, single point] | 
2 | CC(C)(C)C(=O)O/N=C(\N)c1c(Cl)cccc1Cl | inactive | 
3 | Cc1ccc(-n2cccc2C(=S)N=P(N(C)C)(N(C)C)N(C)C)cc1 | inconclusive: 10 µM [inhibitor, partial curve, poor fit] | 
4 | C/C(=N\NC(=O)c1sccc1C)c1ccncc1 | inactive | 
5 | CC(c1ccncc1)C(C)c1ccncc1 (centres undefined) | inconclusive: 0.501 µM [inhibitor, full curve, poor fit] | 
6 | COc1cccc(NC(=O)Nc2nc(SC(C)(C)C)ns2)c1 | inconclusive: 8.91 µM [inhibitor, partial curve] | 
7 | Cc1ccc(-c2csc3nc[nH]c(=S)c23)cc1C | inconclusive: 28.2 µM [inhibitor, single point] | 
8 | CCC(C)c1ccccc1NC(=O)c1cc2cccc([N+](=O)[O-])c2[nH]1 (centres undefined) | inconclusive: 28.2 µM [inhibitor, single point] | 
9 | Cc1cc(C)n(-c2ccc(C(=O)Nc3ccc(C)c(S(=O)(=O)N4CCOCC4)c3)cc2)n1 | inconclusive: 10 µM [inhibitor, partial curve, poor fit] | 
10 | CC(C)c1ccc(CNc2ccc3c(c2)ncn3C)cc1 | inconclusive: 11.2 µM [inhibitor, single point] | 
11 | COc1ccc(C)cc1Nc1n[n+](-c2ccccc2)c(-c2cc(OC)c(OC)cc2Br)s1 | inconclusive: 28.2 µM [inhibitor, single point] | 
12 | CCCC(=O)Nc1cccc(NC(=O)c2ccc([N+](=O)[O-])cc2Cl)c1 | inactive | 
13 | COc1ccccc1C(=O)NNC(=O)c1nn(Cc2ccccc2)c(=O)c2ccccc12 | active: 10 µM | 
14 | O=C1OCCN1N1CCOC1=O | inactive | 
15 | COc1cc(/C=N/NC(=O)c2cc(-c3ccccc3C)nc3ccccc23)cc(OC)c1O |  | inconclusive: -30.8% [inhibitor]
16 | NC(=O)c1cc([N+](=O)[O-])ccc1NCc1ccc(O)cc1 | inconclusive: 10 µM [inhibitor, partial curve, poor fit] | 
17 | COc1cc(OC)cc(C(=O)NCC(=O)Nc2ccc(-c3ccccc3)cc2)c1 | inconclusive: 1 µM [inhibitor, full curve, poor fit] | 
18 | CC1CCN(CCCCOc2cccc(Br)c2)CC1 | inconclusive: 20 µM [inhibitor, single point] | 
19 | O=C(Cn1nc(C(=O)O)c2ccccc2c1=O)Nc1cc(Cl)ccc1-n1cncn1 | inactive | 
20 | O=C(NC(NC(=S)Nc1cccc(Cl)c1)C(Cl)(Cl)Cl)OCc1ccccc1 (centres undefined) | inconclusive: 28.2 µM [inhibitor, single point] | 
21 | COc1ccc(NC(=O)c2oc3ccccc3c2NC(=O)C2CCCCC2)c(OC)c1 | inactive | 
22 | Oc1cccc(Nc2nc(NCC3CCCO3)c3ccccc3n2)c1 (centres undefined) | inconclusive: 12.6 µM [inhibitor, single point] | 

Row | SMILES | Potency | activity change, negative = inhibition
23 | COc1cc(CNC(=O)Nc2nc(C(N)Cc3ccc(C(F)(F)F)cc3)cs2)cc(OC)c1OC (centres undefined) | inconclusive: 8.91 µM [inhibitor, partial curve, poor fit] | 
24 | O=C(NC(c1ccc(Cl)cc1)c1ccsc1)C1CCN(Cc2ccc(Oc3ccccc3)cc2)CC1 (centres undefined) | inactive | 
25 | O=C(NC(=S)N1CCN(Cc2ccc3c(c2)OCO3)CC1)c1ccc(Cl)cc1 | inconclusive: 28.2 µM [inhibitor, single point] | 
26 | Cc1nn2cc(-c3ncc(C(F)(F)F)cc3Cl)cnc2c1Br | inactive | 
27 | Cc1ccc(-c2noc(CSc3nnc(-c4ccncc4)n3-c3ccc(C)cc3)n2)cc1 | inconclusive: 12.6 µM [inhibitor, single point] | 
28 | O=C1/C(=C/c2cccs2)SC(=S)N1CCC(=O)N1CCCCC1CCO (centres undefined) | inconclusive: 12.6 µM [inhibitor, partial curve, poor fit] | 
29 | Cc1cccc(OCCCC(=O)Nc2nccs2)c1C | inactive | 
30 | O=C(Nc1ccc2nc3n(c(=O)c2c1)CCCCC3)c1cccc(C(F)(F)F)c1 | inactive | 
31 | COC(=O)C(NC(=O)c1ccc(Cl)cc1)(Nc1nc(C)cs1)C(F)(F)F (centres undefined) | inconclusive: 0.501 µM [inhibitor, full curve, poor fit] | 
32 | Cc1ccccc1NC(=O)COC(=O)c1ccc(S(C)(=O)=O)c([N+](=O)[O-])c1 | inconclusive: 12.6 µM [inhibitor, single point] | 
33 | CC(CC(=O)O)n1nnc2ccccc21 (centres undefined) | inconclusive: 22.4 µM [inhibitor, single point] | 
34 | COc1ccc(N2CCC(CNC(=O)Nc3ccc(C)c(C)c3)C2)cc1 (centres undefined) | inactive | 
35 | CCC(=O)Nc1ccc(NC(=S)NC(=O)/C=C/c2ccco2)cc1 | inconclusive: 28.2 µM [inhibitor, single point] | 
36 | CCN1CCCC1CNC(=O)C(=O)Nc1ccc(OC)cc1 (centres undefined) | inconclusive: 1 µM [inhibitor, full curve] | 
37 | COc1ccccc1Nc1ncnc2scc(-c3ccc(F)cc3)c12 | inactive | 
38 | CC(=O)OCC1(C)CN(c2ccccc2)N(C(=O)c2ccc(F)cc2)C1=O (centres undefined) | inconclusive: 14.1 µM [inhibitor, single point] | 
39 | CCOCCCNC(=O)/C(C#N)=C/c1ccc(Cl)c([N+](=O)[O-])c1 | inconclusive: 28.2 µM [inhibitor, single point] | 
40 | COc1cc(OC)cc(-c2cc3ncccc3cn2)c1 | inconclusive: 0.891 µM [inhibitor, full curve, poor fit] | 
41 | Cc1cc2cc(CN(CC3CCCO3)C(=S)Nc3ccccc3)c(=O)[nH]c2cc1C (centres undefined) | inconclusive: 7.08 µM [inhibitor, partial curve] | 
42 | COc1ccc(Cl)cc1NC(=O)CN(C)C(C)C(=O)NC(=O)NC1CCCCC1 (centres undefined) | inconclusive: 28.2 µM [inhibitor, single point] | 
43 | O=C(O)CN1C(=O)NC2(CCCc3ccccc32)C1=O (centres undefined) | inconclusive: 28.2 µM [inhibitor, single point] | 
44 | Cc1nc2ccc(NC(=O)Cc3ccccc3F)cc2s1 | inconclusive: 12.6 µM [inhibitor, single point] | 
